Test results: paper PMC4207660, “Identification and Characterization of Hundreds of Potent and Selective Inhibitors of Trypanosoma brucei Growth from a Kinase-Targeted Library Screening Campaign” (PLoS Neglected Tropical Diseases, 2014)

Key:
ChromlogD assay = details: reversed-phase HPLC column (Luna C18 (2)), pH 7.4
Experimental: The Chromatographic Hydrophobicity Index (CHI)[22] values were measured using reversed phase HPLC column (Luna C18 (2), Phenomenex, UK) with a fast acetonitrile gradient at starting mobile phase of pH = 7.4. CHI values are derived directly from the gradient retention times by using a calibration line obtained for standard compounds. The CHI value approximates to the volume % organic concentration when the compound elutes. […] The average error of the assay is ±3 CHI unit or ±0.25 ChromlogD.

[1] = test system: T. brucei brucei parasites (Lister 427 strain); experiment: Dose response growth inhibition assay (resazurin, 72 h); format: cell-based; details: Trypanosoma brucei, 72 h; read-out: pEC50 (converted)
Experimental: Greiner sterile black clear bottom 384-well assay plates were pre-dispensing with 200 nL of compound in each well, from master plates at 1 mM (100% DMSO) containing selection from the GSK compound collection. Controls of 0% response (control 1, 200 nL of 100%DMSO) and 100% response (control 2, 200 nL of 1 mM pentamidine) were included in each assay plate in columns 6 and 18, respectively. Plates containing 200 nL of 100% DMSO were included randomly in the assay, to assess quality through all process. […] After this period, 10 µL of 200 µM resazurin solution in prewarmed HMI-9 were added to each well, and plates were allowed to incubate 2 hours more prior fluorescence reading in a Wallac EnVision Multilabel Plate Reader (Perkin-Elmer). Raw fluorescent data from the Envision plate reader were uploaded into GSK HTS database (ActivityBase). Activity of each well was normalized as a percentage of inhibition per-plate basis using the following equation: [drawing 1]
For dose-response experiments, serial compound dilutions of selected hits from the primary campaign were plotted against compound concentration. Dose response master plates were prepared by 3-fold dilutions (starting with 10 mM DMSO stock solutions), providing 11 concentrations. From these master plates, 200 nL per well was stamped in final assay plates, including the same controls describe in the primary single shot assay. Compounds were dispensed as serial dilution curve format, with 11 points at 3-fold dilution and 40 µM as starting top concentration (n = 2). Growth inhibition assay was performed as described in previous assay.
A 4-parameter equation describing a sigmoidal dose-response curve was then fitted with an adjustable baseline using ActivityBase XE Runner software. Fitting of dose-response curves and EC50 determination were normalized as percentage of inhibition based on controls. The curve-fit model was based on a 4-parameter equation: [drawing 2]
Trypanosome cell culture. […]

logD (ChromlogD assay) | SMILES | EC50 [1] [nM]
2.82 | CCn1nccc1NC(=O)c1ncnc2ccc(-c3cccc(S(C)(=O)=O)c3)cc12 [NEU-0001104] | –
2.05 | Cc1cccc(Nc2nc(OCCN)ncc2C(N)=O)c1 [NEU-0001103] | 339
1.72 | CS(=O)(=O)Nc1ccc(-c2c(-c3cccnc3)oc3ncnc(N)c23)cc1 [NEU-0001100] | 692
2.62 | CC[C@@H]1COCCN1c1cc(-c2cc(OC)c3c(N)n[nH]c3c2)nc(N)n1 [NEU-0001102] | 447
